{
  "source": "paper PMC4336329",
  "about": "(PLoS ONE, 2015)",
  "note": "Screen size: about 310,000 compounds; about 2,200 (0.71%) showed an effect of 50% or more. Effects have a minus sign here. Some of the results follow.",
  "data": [
    {"target": "human ether-à-go-go-related gene (hERG) potassium channel (human, UniProt Q12809)", "sequence (Q12809 whole entry, looked up)": "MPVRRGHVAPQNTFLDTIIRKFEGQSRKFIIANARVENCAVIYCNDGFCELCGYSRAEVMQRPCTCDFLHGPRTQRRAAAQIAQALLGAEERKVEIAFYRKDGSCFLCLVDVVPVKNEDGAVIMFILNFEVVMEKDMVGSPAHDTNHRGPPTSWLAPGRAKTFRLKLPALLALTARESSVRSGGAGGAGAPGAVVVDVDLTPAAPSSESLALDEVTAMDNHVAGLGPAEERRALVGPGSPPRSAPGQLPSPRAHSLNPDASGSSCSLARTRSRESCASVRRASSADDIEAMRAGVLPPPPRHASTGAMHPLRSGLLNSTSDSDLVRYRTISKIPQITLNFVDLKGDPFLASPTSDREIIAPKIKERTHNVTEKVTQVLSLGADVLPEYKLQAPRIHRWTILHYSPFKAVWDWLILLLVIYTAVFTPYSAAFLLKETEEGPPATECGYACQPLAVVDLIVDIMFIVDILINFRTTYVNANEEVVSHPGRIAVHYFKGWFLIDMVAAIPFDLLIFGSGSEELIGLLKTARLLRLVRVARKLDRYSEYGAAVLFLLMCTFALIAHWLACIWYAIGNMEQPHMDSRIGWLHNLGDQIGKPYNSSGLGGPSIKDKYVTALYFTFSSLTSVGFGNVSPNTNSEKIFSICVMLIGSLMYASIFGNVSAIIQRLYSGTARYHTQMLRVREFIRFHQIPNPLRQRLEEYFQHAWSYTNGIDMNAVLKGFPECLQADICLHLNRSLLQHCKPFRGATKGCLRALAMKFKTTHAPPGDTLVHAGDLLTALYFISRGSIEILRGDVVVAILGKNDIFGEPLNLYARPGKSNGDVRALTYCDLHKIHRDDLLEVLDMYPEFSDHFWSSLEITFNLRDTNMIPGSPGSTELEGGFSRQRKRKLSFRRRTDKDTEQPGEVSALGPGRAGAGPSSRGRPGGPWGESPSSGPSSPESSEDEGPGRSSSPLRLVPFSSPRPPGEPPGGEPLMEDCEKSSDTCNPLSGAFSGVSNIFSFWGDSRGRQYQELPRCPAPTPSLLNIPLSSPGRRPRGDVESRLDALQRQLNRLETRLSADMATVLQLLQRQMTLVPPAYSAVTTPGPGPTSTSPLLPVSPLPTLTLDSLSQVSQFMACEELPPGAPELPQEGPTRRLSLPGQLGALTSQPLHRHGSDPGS", "test": "primary screen, population patch clamp on CHO cells stably expressing hERG", "units": {"hERG current change (%, negative = inhibition) at 1uM": "%"}, "values": [
      {"compound": "C/C=C/c1ccc(OCCCn2cncn2)c(OC)c1", "hERG current change (%, negative = inhibition) at 1uM": 6},
      {"compound": "CCCCN(C(=O)Cn1ncc(Cl)c(Cl)c1=O)c1c(N)n(CC(C)C)c(=O)[nH]c1=O", "hERG current change (%, negative = inhibition) at 1uM": 17.2},
      {"compound": "CSc1nc2ccccc2cc1/C=C(\\C#N)c1ccc(Cl)cc1Cl", "hERG current change (%, negative = inhibition) at 1uM": 6.16},
      {"compound": "COc1ccc(-c2cc(=O)[nH][nH]2)cc1", "hERG current change (%, negative = inhibition) at 1uM": 10.3},
      {"compound": "C=CCn1c(C)cc(C(=O)CSc2nnc(NC(C)C)s2)c1C", "hERG current change (%, negative = inhibition) at 1uM": 4.41},
      {"compound": "COc1ccccc1Nc1nc(-c2c(C)[nH]c3ccccc23)cs1", "hERG current change (%, negative = inhibition) at 1uM": 16.5},
      {"compound": "O=C(Nc1cccc([N+](=O)[O-])c1)c1ccc2c(c1)OCCO2", "hERG current change (%, negative = inhibition) at 1uM": 4.81},
      {"compound": "CNP(=O)(Oc1ccccc1)OC12CC3CC(CC(C3)C1)C2", "note": "(stereo not drawn)", "hERG current change (%, negative = inhibition) at 1uM": -1.75},
      {"compound": "O=C(O)CCn1c(-c2ccccc2)cc2c1CCCC2=O", "hERG current change (%, negative = inhibition) at 1uM": 16.8},
      {"compound": "CCC1=C(OC(=O)N(CC)CC)N2C(=O)OC(=NCCc3c[nH]c4ccccc34)[C@]2(C)[C@H]2C1=CC[C@H]1C(=O)N(C)C(=O)[C@H]12", "hERG current change (%, negative = inhibition) at 1uM": 15.5},
      {"compound": "O=C(COc1ccc(-n2cnnn2)cc1)Nc1ccccc1OC(F)F", "hERG current change (%, negative = inhibition) at 1uM": 11.8},
      {"compound": "Cn1c(=O)n(Cc2ccccc2)c(=O)c2c1nc1n2CCCN1CCc1ccccc1", "hERG current change (%, negative = inhibition) at 1uM": 3.61},
      {"compound": "NS(=O)(=O)c1ccc(NC(=O)COC(=O)CC2Sc3ccccc3NC2=O)cc1", "note": "(stereo not drawn)", "hERG current change (%, negative = inhibition) at 1uM": 13.3},
      {"compound": "CN1CCN(c2ccc(N)cc2Cl)CC1.Cl", "hERG current change (%, negative = inhibition) at 1uM": 4.79},
      {"compound": "CSc1ccc(S(=O)(=O)Nc2c(C)n(C)n(-c3ccccc3)c2=O)cc1", "hERG current change (%, negative = inhibition) at 1uM": 9.99},
      {"compound": "CCOC(=O)Cn1c(O)c(N=NC(=O)CNC(=O)Cc2ccccc2)c2ccccc21", "hERG current change (%, negative = inhibition) at 1uM": 6.05},
      {"compound": "O=C(c1ccco1)N1C(=O)c2cccc3cccc1c23", "hERG current change (%, negative = inhibition) at 1uM": 5.53},
      {"compound": "O=C(CCCOc1ccc(Br)cc1)Nc1nnc(C2CC2)s1", "hERG current change (%, negative = inhibition) at 1uM": 12},
      {"compound": "CC(Oc1ccccc1)C(=O)N1CCC2(CC1)Oc1ccc(F)cc1C(=O)C21CC(c2ccccc2)=NO1", "note": "(stereo not drawn)", "hERG current change (%, negative = inhibition) at 1uM": 14.1},
      {"compound": "COc1ccc(-c2c(C)n([O-])c(C)c(-c3ccccc3)[n+]2=O)cc1OC", "hERG current change (%, negative = inhibition) at 1uM": 4.59},
      {"compound": "O=C(CCS(=O)(=O)c1ccccc1)Nc1ncc([N+](=O)[O-])s1", "hERG current change (%, negative = inhibition) at 1uM": 18.1},
      {"compound": "CC1CCCC(NC2CCCCNC2=O)C1", "note": "(stereo not drawn)", "hERG current change (%, negative = inhibition) at 1uM": 11.6},
      {"compound": "C[C@@H]1CN(C(=O)c2ccc(OC3CCN(S(=O)(=O)N(C)C)CC3)cc2)C[C@H](C)O1", "hERG current change (%, negative = inhibition) at 1uM": 2.69},
      {"compound": "COc1ccc(NC(=O)C2CCN(S(=O)(=O)c3cccs3)CC2)cc1OC", "hERG current change (%, negative = inhibition) at 1uM": 18.5},
      {"compound": "O=C(Nc1ccc(Cl)c(Cl)c1)N1CCOCC1", "hERG current change (%, negative = inhibition) at 1uM": 6.12},
      {"compound": "CCCCn1c(N)c(N(CC)C(=O)Cc2ccc(S(=O)(=O)N3CCOCC3)s2)c(=O)[nH]c1=O", "hERG current change (%, negative = inhibition) at 1uM": -4.2},
      {"compound": "COc1ccccc1-n1c(-c2ccoc2)nc2ccccc2c1=O", "hERG current change (%, negative = inhibition) at 1uM": -11.5},
      {"compound": "COCCOC(=O)C1=C(C)NC(C)=C(C(=O)OC(C)C)C1c1cccc([N+](=O)[O-])c1", "note": "(stereo not drawn)", "hERG current change (%, negative = inhibition) at 1uM": 4.52},
      {"compound": "CCC1(C2=NCCN2)Cc2ccccc2O1.Cl", "note": "(stereo not drawn)", "hERG current change (%, negative = inhibition) at 1uM": 8.66},
      {"compound": "CCOC(=O)C1CCCN(C(=O)c2cc3ncc(Br)cn3n2)C1", "note": "(stereo not drawn)", "hERG current change (%, negative = inhibition) at 1uM": 8.85},
      {"compound": "Cc1ccc(C2=NN(C(=O)CCC(=O)O)C(c3cn(-c4ccccc4)nc3-c3ccc(C)cc3)C2)cc1", "note": "(stereo not drawn)", "hERG current change (%, negative = inhibition) at 1uM": 4.3},
      {"compound": "CCOc1ccc(CN(C)CC(=O)Nc2cccc(S(=O)(=O)N(C)c3ccccc3)c2)cc1.O=C(O)C(=O)O", "hERG current change (%, negative = inhibition) at 1uM": 14.6},
      {"compound": "CC(C)c1ccc(/C=C2\\SC(N3CCOCC3)=NC2=O)cc1", "hERG current change (%, negative = inhibition) at 1uM": -0.379},
      {"compound": "O=C(NC1CCCCC1)C(c1ccncc1)N(CC1CCCO1)C(=O)C(F)(F)F", "note": "(stereo not drawn)", "hERG current change (%, negative = inhibition) at 1uM": 4.33},
      {"compound": "CCn1c(SCC(=O)NC)nnc1C(C)C", "hERG current change (%, negative = inhibition) at 1uM": 10.9},
      {"compound": "CSc1ccccc1C(=O)NCc1ccccc1C", "hERG current change (%, negative = inhibition) at 1uM": 12.5},
      {"compound": "CCC(C)(C)NC(=O)/C=C/c1cnc2ccccc2n1", "hERG current change (%, negative = inhibition) at 1uM": -0.677},
      {"compound": "Cc1cc(=O)[nH]c2c1c(C)nn2-c1ccccc1", "hERG current change (%, negative = inhibition) at 1uM": 0.187},
      {"compound": "COc1ccc(C(C)C)cc1S(=O)(=O)N1CCC(C(=O)NCc2cccnc2)CC1", "hERG current change (%, negative = inhibition) at 1uM": 8.19},
      {"compound": "O=C(N/N=C/c1ccc(Cl)cc1Cl)c1cccc(F)c1", "hERG current change (%, negative = inhibition) at 1uM": -2.53},
      {"compound": "CCOC(=O)c1c(C)c(C(=O)O)n(C)c1C", "hERG current change (%, negative = inhibition) at 1uM": 10.3},
      {"compound": "COc1cc(OC)cc(C(=O)N[C@H](C(=O)Nc2cc(F)ccc2C)C(C)C)c1", "hERG current change (%, negative = inhibition) at 1uM": 10.8},
      {"compound": "O=C(CSc1ccc2c(c1)OCCO2)NC(=O)NC1CCCC1", "hERG current change (%, negative = inhibition) at 1uM": 6.1},
      {"compound": "CSc1ccc(Cc2ccc(Cl)cc2Cl)nn1", "hERG current change (%, negative = inhibition) at 1uM": 5.79},
      {"compound": "CCCCSc1nsc(NC(C)=O)n1", "hERG current change (%, negative = inhibition) at 1uM": 4.11},
      {"compound": "O=C(c1ccc2nc[nH]c2c1)N1CCN(c2cccc(C(F)(F)F)c2)CC1", "hERG current change (%, negative = inhibition) at 1uM": 17.2},
      {"compound": "Cc1ccc(Cl)cc1NC1=C/C(=N\\S(=O)(=O)c2cccs2)c2ccccc2C1=O", "hERG current change (%, negative = inhibition) at 1uM": 8.85},
      {"compound": "CC(C)NS(=O)(=O)c1ccc(OCC(=O)NCc2ccccc2)cc1", "hERG current change (%, negative = inhibition) at 1uM": 12.9},
      {"compound": "Cc1ccccc1-c1cc2nc(C)c(Cl)c(=O)n2[nH]1", "hERG current change (%, negative = inhibition) at 1uM": 9.76},
      {"compound": "Cc1sc2c(c1C)c(=O)n(-c1ccccc1)c1nnc(C)n21", "hERG current change (%, negative = inhibition) at 1uM": 12.5},
      {"compound": "O=C(O)c1cccc(NC(=O)c2cccc(S(=O)(=O)Nc3cccc([N+](=O)[O-])c3)c2)c1", "hERG current change (%, negative = inhibition) at 1uM": 19},
      {"compound": "C=CCn1c(COc2ccccc2F)nnc1SCC(=O)Nc1cc(C)on1", "hERG current change (%, negative = inhibition) at 1uM": 8.05},
      {"compound": "Cc1ccc(/C=C/C(=O)C2C(=O)c3ccccc3C2=O)cc1", "hERG current change (%, negative = inhibition) at 1uM": 9.1},
      {"compound": "COc1ccc2nc(C)cc(SCC(=O)N/N=C/c3ccc(O)c(O)c3)c2c1", "hERG current change (%, negative = inhibition) at 1uM": 13},
      {"compound": "O=C(NCCC1=CCCCC1)C1CCN(S(=O)(=O)c2cnc[nH]2)CC1", "hERG current change (%, negative = inhibition) at 1uM": 4.43},
      {"compound": "CN(C(=O)CC1C(=O)NCCN1C/C=C/c1ccccc1)C1CCOCC1", "note": "(stereo not drawn)", "hERG current change (%, negative = inhibition) at 1uM": 14.2},
      {"compound": "COc1ccc(CNC(=O)c2c(O)c3cc(OC)c(OC)cc3[nH]c2=O)cc1OC", "hERG current change (%, negative = inhibition) at 1uM": 11.7}
    ]}
  ]
}
